Assay results taken from PubChem BioAssay AID2546 (National Center for Advancing Translational Sciences (NCATS), 2010).
In all, about 310,000 compounds went through this assay and about 11,000 (3.5%) were called active. Inconclusive means that the source gave no clear call. Such entries were picked first, then a sample of the others. The call rests on the fitted dose curve; in most records, active means well fitted inhibition curve with a large enough effect; inconclusive means small, poorly fitted or top-dose-only effect, or effect the other way; inactive means flat fitted curve, though single readings scatter. No potency is given beside an inconclusive call; the fits are too rough.

Experiment: VP16 counterscreen qHTS for inhibitors of ROR gamma transcriptional activity;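 further: Gal4-VP16 expression switched on by copper sulfate through the metallothionein promoter; nearly all actives have a fitted effect of over 50% in size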
Settings: Drosophila S2 Gal4-VP16 UAS-luciferase, luminescence, 20 h; activity, negative = inhibition: at 53.6 µM (top of the series)
On the % scale 0 is the no-effect control and ±100 the full control effect; potency means the concentration at half of the fitted maximal effect; tags describe the fitted curve by direction and shape.

Structure (SMILES) | Potency | activity, negative = inhibition
COc1ccccc1NC(=O)CCCCC(=O)Nc1ccccc1OC | inactive | 
COc1ccc(NC(=O)c2sc3nc(N4CCOCC4)c4c(c3c2N)CC(C(C)C)OC4)c(OC)c1 (centres undefined) | inactive | 
Cc1cc(C)c[n+](C(C)C(=O)c2ccc(-c3ccccc3)cc2)c1 (centres undefined) | inconclusive [inhibitor, single point] | 
Cc1cccnc1NC(=S)NC(=O)c1cncc(Br)c1 | inconclusive [inhibitor, single point] | 
COc1cc([N+](=O)[O-])ccc1N1C(=O)C2C3C=CC(C4CC34)C2C1=O (centres undefined) | inconclusive [inhibitor, single point] | 
CCOC(=O)c1sc(NC(=S)NC(=O)c2cccc(OC)c2)nc1C | inconclusive [inhibitor, single point] | 
O=C(Cc1ccc(Br)cc1)NC1CCSC1=O (centres undefined) | inactive | 
Cc1ccc(C(=O)/C=C/c2ccc(-c3ccc(C)cc3)o2)cc1 | inconclusive [inhibitor, single point] | 
CCc1cccc(NC(=O)c2ccc3c(=O)n4c(nc3c2)CCCCC4)c1 | inconclusive [inhibitor, single point] | 
CCc1ccc2nc(NC3=NCN(CCN4CCOCC4)CN3)nc(C)c2c1 | inactive | 
CCN(CC)S(=O)(=O)c1ccc2c(c1)nc(SC(C)C(N)=O)n2-c1ccc(OC)cc1 (centres undefined) | inactive | 
CCOC(=O)C1CCN(C(=O)C(C)Oc2ccc(Br)cc2)CC1 (centres undefined) | inactive | 
Cc1ccc(S(=O)(=O)Nc2ccc(-c3csc(-c4ccccc4)n3)cc2)cc1 | inconclusive [inhibitor, single point] | 
Cc1ccc(/C=c2/sc3n(c2=O)CCCN=3)o1 | inconclusive [activator, single point] | 
Cc1ccc2nc(-c3cc(-c4ccccc4)no3)cn2c1 | active: 3.98 µM | 
O=c1c2ccccc2[nH]c(=S)n1Cc1ccc2c(c1)OCO2 | inactive | 
CCC(C)NC(=O)C1c2ccccc2Oc2ccccc21 (centres undefined) | inconclusive [inhibitor, single point] | 
CCc1ccc(NC(=S)Nc2cccc(OC)c2)cc1 | inconclusive [inhibitor, single point] | 
CC(OC(=O)c1ccccc1N1C(=O)C2C3CCC(C3)C2C1=O)C(=O)c1ccccc1 (centres undefined) | inconclusive [activator, single point] | 
COc1ccc(CN(C)C(=O)c2oc3ccccc3c2CSC)cc1F | inactive | 
CCOc1ccc2c(c1)C(=NNC(=O)c1ccncc1)c1cc(OCC)ccc1-2 | active: 0.891 µM | 
CN(Cc1ccccc1)S(=O)(=O)c1cccc2cccnc12 | inactive | 
O=C(COC(=O)c1ccc2[nH]c3c(c2c1)CCCC3)Nc1ccc(Cl)cc1Cl | inconclusive [inhibitor, single point] | 
Cc1ccc2nc(/C=C/c3cccc(F)c3)ccc2c1 | inactive | 
Cc1ccc(/C=C/C(=O)Nc2ccncc2)o1 | inconclusive [activator, single point] | 

Structure (SMILES) | Potency | activity, negative = inhibition
COCCn1c(=S)[nH]c2sc3c(c2c1=O)CCC(C)C3 (centres undefined) | active: 1.26 µM | 
CCCCn1c(NC(=O)c2ccccc2)nc2ccccc21 | active: 2.24 µM | 
O=C(Nc1ccccn1)c1ccc(-c2ccccc2)cc1 | inconclusive [inhibitor, partial curve, poor fit] | 
CCN(CC(O)CON=C1c2ccccc2-c2ccccc21)S(=O)(=O)c1ccc(C)cc1 (centres undefined) | inconclusive [inhibitor, single point] | 
O=C(Nc1ccc2c(c1)oc1ccccc12)c1ccc2c(c1)OCO2 | inconclusive [inhibitor, single point] | 
COc1cc(OC)cc(C(=O)NC(=S)N2CCCCC2c2cccnc2)c1 (centres undefined) | active: 3.98 µM | 
COC(=O)c1sccc1NC(=S)Nc1ccccc1 | inconclusive [inhibitor, single point] | 
O=C(N/N=C/c1c(Cl)[nH]c2ccccc12)c1sc2ccccc2c1Cl | inconclusive [inhibitor, single point] | 
COc1cc(OC)cc(C(=O)NNC(=S)Nc2ccc(S(N)(=O)=O)cc2)c1 |  | inactive: 0.504% [at 10 µM]
Cc1cc(C)cc(NC(=S)Nc2ccc3cn[nH]c3c2)c1 | inconclusive [inhibitor, single point] | 
CCN(CC)CCNC(=O)c1ccc(NC(=O)c2cn(-c3ccc(F)cc3)nc2-c2cccc(OC)c2)cc1 | inconclusive [inhibitor, single point] | 
Clc1ccc2nc(CN3CCCc4ccccc43)cn2c1 | inconclusive [inhibitor, single point] | 
CC(C)c1csc(CN2CCN(Cc3ccc(F)cc3)C(CCO)C2)n1 (centres undefined) | inactive | 
O=C(O)c1cccc(Oc2ccccc2[N+](=O)[O-])c1 | inactive | 
O=C(CN1C(=O)NC(Cc2c[nH]c3ccccc23)C1=O)Nc1cccc(S(=O)(=O)N2CCCC2)c1 (centres undefined) | inconclusive [inhibitor, single point] | 
O=C(N/N=C/c1cn(-c2ccccc2)nc1-c1cccnc1)c1cccnc1 | inconclusive [inhibitor, single point] | 
O=C(NCc1ccco1)c1ccc(Br)c(S(=O)(=O)N2CCCCC2)c1 | inactive | 
Cn1c(=O)c2c(nc(Sc3ncccn3)n2Cc2ccccc2Cl)n(C)c1=O | inactive | 
Cc1cc(-c2n[nH]c(=S)n2/N=C/c2cccs2)n[nH]1 | inconclusive [activator, single point] | 
O=C(Nc1c(C(=O)Nc2cccc3ccccc23)cnn1-c1ccccc1)c1ccco1 | inconclusive [activator, single point] | 
COc1ccc(C(=O)ON=C2c3ccccc3-c3ccccc32)cc1OC | inconclusive [activator, single point] | 
Cc1ccc(C(=O)NCCSC(C)(C)C)cc1 | inconclusive [inhibitor, full curve, poor fit] | 
S=C(Nc1nc2c(s1)CCCC2)NC1CC1 | active: 1.78 µM | 
Cc1cc(C)c(C)c(N=Nc2nc3ccccc3n2C)c1C | active: 5.62 µM | 
CCOC(=O)NC(C(Cl)(Cl)Cl)S(=O)(=O)c1ccccc1 (centres undefined) | inconclusive [inhibitor, single point] | 

Structure (SMILES) | Potency | activity, negative = inhibition
Cc1ccc(-c2nnc(N3CCOCC3)c3ccccc23)cc1S(=O)(=O)NCC1CCCO1 (centres undefined) | inconclusive [inhibitor, single point] | 
CCCCc1n[nH]c(=S)n1Cc1ccc(C)cc1 | inconclusive [inhibitor, partial curve] | 
O=C(COc1ccc2ccccc2c1)Nc1nc2ccccc2[nH]1 | inconclusive [inhibitor, single point] | 
O=C(COc1ccccc1)N1CCN(C(=O)c2cccs2)CC1 | inactive | 
CN(C)CC(CCC(CN(C)C)C(=O)c1ccccc1)C(=O)c1ccccc1 (centres undefined) | active: 10 µM | 
Cc1cccc(CSc2nnc(CCNC(=O)OC(C)(C)C)o2)c1 | inactive | 
Cc1cc(C)cc(NC(=O)CSc2nnc(-c3ccccc3C)o2)c1 | inconclusive [inhibitor, partial curve] | 
Cc1ccc2c(CN3CCC(C)CC3)cc(=O)oc2c1C | inconclusive [activator, partial curve, poor fit] | 
O=c1[nH]c(SCc2nc3ccccc3c(=O)n2-c2ccccc2)nc2ccccc12 | inactive | 
O=C(Nc1cccc([N+](=O)[O-])c1)c1ccc(CN2CCOCC2)cc1 | inconclusive [inhibitor, single point] | 
CCOC(=O)c1cc2c(nc1N)CC(C)(CC)OC2 (centres undefined) | inconclusive [activator, partial curve] | 
COc1ccc2ccccc2c1C1CC(=O)N2CN(Cc3ccco3)CSC2=C1C#N (centres undefined) | inconclusive [inhibitor, single point] | 
CC1CCN(C2=NC(=O)/C(=C/c3ccc(O)cc3)S2)CC1 | inconclusive [inhibitor, full curve] | 
O=C(NC1=NCCS1)c1ccc(Cl)c(S(=O)(=O)N2CCCCC2)c1 | inconclusive [inhibitor, single point] | 
CC1=C/C(=N\NC(=O)c2cccs2)CC(C)(C)C1 | active: 11.2 µM | 
O=C(CSc1nc2ccccc2nc1N1CCCC1)Nc1ccc(F)cc1 | inactive | 
COCCN(C(=S)Nc1cc(C)cc(C)c1)C(C)c1cccnc1 (centres undefined) | inconclusive [inhibitor, single point] | 
O=[N+]([O-])c1ccc(O)c(Nc2ncnc3ccccc23)c1 | inconclusive [inhibitor, single point] | 
CCOC(=O)c1c(C)[nH]c2c1cc(O)c1ccccc12 | inconclusive [inhibitor, single point] | 
O=C(Nc1nc(-c2cccnc2)cs1)c1ccc(S(=O)(=O)N2CCOCC2)cc1 | inactive | 
Cc1ccc(C)c(S(=O)(=O)Nc2ccc(O)c3ccccc23)c1 | inconclusive [inhibitor, single point] | 
O=C1Nc2ccc([N+](=O)[O-])cc2OC1CCN1CCN(c2ccccc2)CC1 (centres undefined) | inactive | 
COc1ccc(F)cc1CN1CCN(c2cc(C)nc3c4c(C)cc(C)nc4nn23)CC1 | inconclusive [inhibitor, single point] | 
O=c1c2cc(Br)ccc2[nH]c(=S)n1Cc1ccccc1 | active: 3.55 µM | 
